Source: the antibiotic and cytotoxicity screens of Wong et al. (2023)
The other results are listed elsewhere or left out.

test system: HepG2; test: cytotoxicity call (relative viability < 0.9); conditions: 10 µM

**Q.** For `Cc1ccc(C(=O)C(C)CN2CCCCC2)cc1.Cl` (stereo not given), which cytotoxicity call is on record?
**A.** inactive

**Q.** How did the cytotoxicity call turn out when `COCCOC(=O)N1C(=O)[C@@]2(c3cc(C#CC4=CCCCC4)ccc31)[C@H](c1ccccc1OCCO)N1[C@H](c3ccccc3)[C@H](c3ccccc3)OC(=O)[C@H]1[C@@H]2C(=O)N1CCCCCCC1` was run?
**A.** inactive

**Q.** `Cc1ccc(S(=O)(=O)Nc2ccc3c(c2)C(=O)N([C@@H](C)CO)C[C@H](C)[C@H](CN(C)Cc2ccc(C(=O)O)cc2)OCCCC[C@@H](C)O3)cc1` was tested. Which cytotoxicity call did it give?
**A.** inactive

**Q.** With `C#CC1(O)CCC2C3CCC4=CC(=O)CCC4C3CCC21CC` (stereo not given) as the molecule, how does the cytotoxicity call read?
**A.** inactive

**Q.** How did the cytotoxicity call turn out when `O=C([C@@H]1[C@@H](CO)[C@@H]2Cn3c(cccc3=O)[C@@H]2N1C(=O)C1CCCC1)N1CCOCC1` was run?
**A.** inactive

**Q.** Which cytotoxicity call does the source give for `C[C@@H]1CN([C@H](C)CO)C(=O)c2cc(NS(=O)(=O)c3cccs3)ccc2O[C@@H](C)CCCCO[C@@H]1CN(C)C(=O)Cc1ccccc1` here?
**A.** inactive

**Q.** How did the cytotoxicity call turn out when `C[C@@H]1CN([C@@H](C)CO)C(=O)c2cc(C#CC3(O)CCCC3)cnc2O[C@@H]1CN(C)C(=O)Cc1ccncc1` was run?
**A.** inactive

**Q.** `COc1ccc(S(=O)(=O)N(C)C[C@@H]2OCCCC[C@H](C)Oc3ccc(NS(=O)(=O)c4cn(C)cn4)cc3C(=O)N([C@@H](C)CO)C[C@@H]2C)cc1` was tested. Which cytotoxicity call did it give?
**A.** inactive

**Q.** How did the cytotoxicity call turn out when `C[C@@H]1CN([C@H](C)CO)C(=O)c2cc(NC(=O)Nc3ccc(C(F)(F)F)cc3)ccc2O[C@@H]1CN(C)Cc1ccc(C(F)(F)F)cc1` was run?
**A.** active

**Q.** With `CC(=O)N1CSC[C@H]1C(=O)O` as the molecule, how does the cytotoxicity call read?
**A.** inactive

**Q.** How did the cytotoxicity call turn out when `C[C@@H]1CN([C@@H](C)CO)C(=O)c2cc(NC(=O)c3ccccc3)ccc2O[C@@H](C)CCCCO[C@@H]1CN(C)Cc1ccc(C(=O)O)cc1` was run?
**A.** inactive

**Q.** For `C[C@H](CO)N1C[C@H](C)[C@@H](CN(C)Cc2ccc3c(c2)OCO3)Oc2ccc(NC(=O)Nc3ccc(C(F)(F)F)cc3)cc2CC1=O`, which cytotoxicity call is on record?
**A.** active

**Q.** For `Cc1noc(C)c1NC(=O)N(C)C[C@H]1Oc2ccc(NC(=O)Cn3cnnn3)cc2CC(=O)N([C@H](C)CO)C[C@H]1C`, which cytotoxicity call is on record?
**A.** inactive

**Q.** With `C[C@H]1CN([C@@H](C)CO)C(=O)c2cccc(NS(C)(=O)=O)c2O[C@H]1CN(C)C(=O)Nc1ccc(F)cc1` as the molecule, how does the cytotoxicity call read?
**A.** inactive

**Q.** For `Cc1ccc(S(=O)(=O)Nc2cccc3c2O[C@H](CN(C)S(=O)(=O)c2ccc(F)cc2)[C@@H](C)CN([C@H](C)CO)C3=O)cc1`, which cytotoxicity call is on record?
**A.** inactive

**Q.** How did the cytotoxicity call turn out when `C[C@@H]1CCCCO[C@@H](CN(C)Cc2ccc(C(F)(F)F)cc2)[C@@H](C)CN([C@@H](C)CO)C(=O)c2cc(NC(=O)Nc3cccc4ccccc34)ccc2O1` was run?
**A.** inactive

**Q.** `CC(CCc1ccc(O)cc1)NCCc1ccc(O)c(O)c1.Cl` (stereo not given) was tested. Which cytotoxicity call did it give?
**A.** inactive

**Q.** `Cc1noc(C)c1S(=O)(=O)N(C)C[C@@H]1Oc2ccc(NS(=O)(=O)c3cn(C)cn3)cc2C(=O)N([C@@H](C)CO)C[C@@H]1C` was tested. Which cytotoxicity call did it give?
**A.** inactive

**Q.** Which cytotoxicity call does the source give for `C[C@H]1CCCCO[C@H](CN(C)C(=O)Nc2ccc(C(F)(F)F)cc2)[C@@H](C)CN([C@@H](C)CO)C(=O)c2cc(NS(=O)(=O)c3ccccc3)ccc2O1` here?
**A.** active

**Q.** How did the cytotoxicity call turn out when `C[C@H]1CCCCO[C@@H](CN(C)S(=O)(=O)c2cccs2)[C@@H](C)CN([C@@H](C)CO)C(=O)c2cc(NC(=O)NC3CCCCC3)ccc2O1` was run?
**A.** inactive

**Q.** Which cytotoxicity call does the source give for `C[C@H](CO)N1C[C@H](C)[C@@H](CN(C)Cc2ccccc2C(F)(F)F)OCc2ccccc2-c2ccccc2C1=O` here?
**A.** inactive

**Q.** With `C[C@@H]1CN([C@H](C)CO)C(=O)c2cc(NC(=O)c3ccncc3)ccc2O[C@@H]1CN(C)S(=O)(=O)c1cccs1` as the molecule, how does the cytotoxicity call read?
**A.** inactive

**Q.** With `Cc1noc(C)c1NC(=O)Nc1ccc2c(c1)CC(=O)N([C@H](C)CO)C[C@@H](C)[C@H](CN(C)S(C)(=O)=O)O2` as the molecule, how does the cytotoxicity call read?
**A.** inactive

**Q.** How did the cytotoxicity call turn out when `COc1ccc(CN(C)C[C@@H]2OCCCC[C@@H](C)Oc3ccc(NS(=O)(=O)c4ccc(C)cc4)cc3C(=O)N([C@@H](C)CO)C[C@H]2C)cc1` was run?
**A.** inactive

**Q.** Which cytotoxicity call does the source give for `C[C@@H]1CN([C@H](C)CO)C(=O)CCCn2cc(nn2)CO[C@@H]1CN(C)S(=O)(=O)c1ccc(C#N)cc1` here?
**A.** inactive

**Q.** `Cn1cnc(S(=O)(=O)N2C[C@H](O)COC[C@@H]3O[C@H](CC(=O)NC4CCCC4)CC[C@H]32)c1` was tested. Which cytotoxicity call did it give?
**A.** inactive

**Q.** How did the cytotoxicity call turn out when `C[C@H]1CN([C@@H](C)CO)C(=O)c2cccc(NC(=O)Nc3ccccc3)c2O[C@@H]1CN(C)CC1CCCCC1` was run?
**A.** inactive

**Q.** How did the cytotoxicity call turn out when `C[C@@H]1CN([C@@H](C)CO)C(=O)c2cc(NS(=O)(=O)c3cccs3)ccc2O[C@@H](C)CCCCO[C@@H]1CN(C)C(=O)Nc1ccccc1` was run?
**A.** inactive

**Q.** `C[C@H](CO)N1C[C@H](C)[C@@H](CN(C)Cc2ccccc2)OCCCC[C@H](C)Oc2ccc(NC(=O)c3ccccc3)cc2C1=O` was tested. Which cytotoxicity call did it give?
**A.** inactive

**Q.** Which cytotoxicity call does the source give for `C[C@@H]1CN([C@H](C)CO)C(=O)c2cc(NC(=O)C3CCCCC3)ccc2O[C@@H](C)CCCCO[C@H]1CN(C)C(=O)C1CCCCC1` here?
**A.** inactive

**Q.** Which cytotoxicity call does the source give for `CS(=O)(=O)N1C[C@@H]2COC[C@@]2(CN2CCOCC2)C1` here?
**A.** inactive

**Q.** Which cytotoxicity call does the source give for `CC(C)NC(=O)Nc1ccc2c(c1)C(=O)N([C@H](C)CO)C[C@@H](C)[C@H](CN(C)S(=O)(=O)c1cn(C)cn1)OCCCC[C@@H](C)O2` here?
**A.** inactive

**Q.** How did the cytotoxicity call turn out when `CN(C)C(=O)C[C@H]1C=C[C@@H](NC(=O)C2CC2)[C@@H](CO)O1` was run?
**A.** inactive

**Q.** With `C[C@@H]1CN([C@@H](C)CO)C(=O)c2cc(NS(=O)(=O)c3ccc(Cl)cc3)ccc2O[C@@H](C)CCCCO[C@@H]1CN(C)CC1CCCCC1` as the molecule, how does the cytotoxicity call read?
**A.** inactive

**Q.** For `C[C@H](NC(=O)N(C)C[C@@H]1OCc2ccccc2-c2ccccc2C(=O)N([C@@H](C)CO)C[C@@H]1C)c1ccccc1`, which cytotoxicity call is on record?
**A.** inactive

**Q.** For `C[C@H](CO)N1C[C@H](C)[C@H](CN(C)S(C)(=O)=O)OCCCC[C@H](C)Oc2ccc(NC(=O)Nc3cccc4ccccc34)cc2C1=O`, which cytotoxicity call is on record?
**A.** inactive

**Q.** With `CN(C)CC(=O)N[C@@H]1CC[C@H](CC(=O)NCCN2CCCCC2)O[C@@H]1CO` as the molecule, how does the cytotoxicity call read?
**A.** inactive

**Q.** How did the cytotoxicity call turn out when `C[C@H](CO)N1C[C@H](C)[C@H](CN(C)S(=O)(=O)c2ccccc2)Oc2ncc(-c3ccc(F)cc3)cc2C1=O` was run?
**A.** inactive

**Q.** `CO[C@@H]1CN(C)C(=O)c2cc(NS(C)(=O)=O)ccc2OC[C@H](C)N(C(=O)CN(C)C)C[C@H]1C` was tested. Which cytotoxicity call did it give?
**A.** inactive

**Q.** `CCOc1ccc2nc(C34CC5CC(CC(C5)C3)C4)ccc2c1` was tested. Which cytotoxicity call did it give?
**A.** inactive
